Source: PubChem BioAssay AID360 (National Center for Advancing Translational Sciences (NCATS), 2006)
Among all 48,000 compounds or so, about 550 (1.1%) were called active. Inconclusive means that the source gave no clear call. Such entries were picked first, then a sample of the others. Cut-off read from the data, not from the text of the source: active = potency below about 15 µM; inconclusive = mostly about 16 µM to 33 µM; inactive = weaker than that. No potency is given beside an inconclusive call; the fits are too rough.

biological target: Lysosomal acid glucosylceramidase (Homo sapiens) (UniProt P04062); assay: Glucocerebrosidase; conditions: purified enzyme, resorufin glucoside fluorescence (screen aimed at inhibitors), 20 min;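 note: the screen sought inhibitors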
Outline: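 Compounds titrated against 0.2 nM normal enzyme, 30 uM resorufin beta-D-glucopyranoside substrate, citrate/phosphate buffer with taurocholate and tween-20, pH 5.9. Reaction ran 20 min at room temperature; fluorescence (Ex 548/Em 600) gave AC50.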
Potency is the fitted concentration of half-maximal effect.

Sequence of UniProt P04062 (P04062 whole entry, looked up): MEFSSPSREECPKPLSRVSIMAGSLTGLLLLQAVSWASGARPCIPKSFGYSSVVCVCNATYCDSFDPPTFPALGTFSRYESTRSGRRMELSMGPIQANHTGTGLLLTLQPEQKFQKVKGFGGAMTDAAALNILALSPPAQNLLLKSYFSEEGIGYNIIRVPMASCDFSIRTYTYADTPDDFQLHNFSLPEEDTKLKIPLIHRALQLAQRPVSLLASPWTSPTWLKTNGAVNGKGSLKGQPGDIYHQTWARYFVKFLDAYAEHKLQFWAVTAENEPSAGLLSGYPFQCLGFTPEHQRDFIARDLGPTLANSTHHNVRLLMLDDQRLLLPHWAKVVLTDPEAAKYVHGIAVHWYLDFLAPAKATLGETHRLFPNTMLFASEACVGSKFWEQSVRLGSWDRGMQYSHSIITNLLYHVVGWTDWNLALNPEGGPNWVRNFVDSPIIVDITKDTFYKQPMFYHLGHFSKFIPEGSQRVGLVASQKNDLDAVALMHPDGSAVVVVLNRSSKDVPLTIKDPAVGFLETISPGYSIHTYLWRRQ

Row | Compound | Potency
1 | c1cc(-c2nc3cc(Oc4ccc5oc(-c6ccncc6)nc5c4)ccc3o2)ccn1 | inactive: > 76.9 µM
2 | S=c1[nH]nc(C2COc3ccccc3O2)o1 (stereo not drawn) | inactive: > 76.9 µM
3 | CCN(CC)C(=O)CSc1ncnc2c(-c3cccs3)nsc12 | inactive: > 76.9 µM
4 | Cn1c(=O)c2c(nc(CN3CCN(c4ccccc4)CC3)n2Cc2ccccc2Cl)n(C)c1=O | inactive: > 76.9 µM
5 | O=C(Cn1cc(C(=O)c2cccs2)c2ccccc21)NCc1cccs1 | inconclusive [decreasing]
6 | CCOc1ccc(OCC)c(NC(=O)CNS(=O)(=O)c2cccs2)c1 | inconclusive [decreasing]
7 | COCCn1nnnc1C(c1ccc(OC)c(OC)c1)N1CCN(c2nc3ccccc3s2)CC1 (stereo not drawn) | active: 5.98 µM
8 | O=S(=O)(Nc1ccc2c(c1)CCC2)c1cccs1 | inconclusive [decreasing]
9 | O=S(=O)(c1ccc(F)cc1)c1nc(-c2ccc(F)cc2)oc1NCCN1CCOCC1 | inconclusive [decreasing]
10 | COc1ccc(OC)c(Nc2nc(-c3sc(N)nc3C)cs2)c1 | inconclusive [decreasing]
11 | O=C(CCOc1ccccc1)Nc1ccc(S(=O)(=O)N2CCCC2)cc1 | inconclusive [decreasing]
12 | CC1=C(C(=O)OCC(C)C)C(c2cccc(F)c2)N2C(=O)C(C)SC2=N1 (stereo not drawn) | inconclusive [decreasing]
13 | COC(=O)CC1SC(=O)NC1=Nc1ccc(C)cc1 (stereo not drawn) | inconclusive [decreasing]
14 | COc1cccc(NC(=O)Nc2cccs2)c1 | inactive: > 76.9 µM
15 | O=C(Cc1cccs1)N1CCCC(c2nc3c(nnn3Cc3cccc(Cl)c3)c(=O)[nH]2)C1 (stereo not drawn) | inconclusive [decreasing]
16 | O=C(NCc1ccco1)C(c1ccc(F)cc1)N(Cc1cccnc1)C(=O)Cn1nnc2ccccc21 (stereo not drawn) | inconclusive [decreasing]
17 | Cn1c(CCNC(=O)c2ccco2)nc2cc(NC(=O)C3CCCCC3)ccc21 | inconclusive [decreasing]
18 | CC1(C)CC(=O)C2=C(C1)N(CCN1CCOCC1)C1=C(C(=O)CC(C)(C)C1)C2c1ccc(Cl)cc1 | inconclusive [decreasing]
19 | Cc1ccc(NC(=O)CSC2=C(C#N)C(c3ccco3)C3=C(CC(C)(C)CC3=O)N2)cc1 (stereo not drawn) | inconclusive [decreasing]
20 | Nn1c(SCC(=O)Nc2cccc(F)c2)nnc1C1CCCCC1 | inactive: > 76.9 µM
21 | CCOc1cc(OCC)cc(C(=O)Nc2cccnc2)c1 | inconclusive [decreasing]
22 | Cc1ccc(S(=O)(=O)NC(C)(C)CSc2nncn2N)cc1 | inactive: > 76.9 µM
23 | COc1ccc(N2CCN(c3ccc(N)cc3C#N)CC2)cc1 | inactive: > 76.9 µM
24 | CC(C)OCCCNC(=O)c1c(N)n(/N=C/c2ccccn2)c2nc3ccccc3nc12 | inconclusive [decreasing]

Row | Compound | Potency
25 | O=C(Nc1ccc(N2CCN(C(=O)c3ccc(Cl)cc3)CC2)cc1)c1cccnc1 | inconclusive [decreasing]
26 | Cc1cccc2cc(CN(Cc3nnnn3C3CCCC3)C3CCCCC3)c(=O)[nH]c12 | inconclusive [decreasing]
27 | CCCCn1c(SCC(=O)Nc2nnc(C)s2)nnc1-c1ccoc1C | inconclusive [decreasing]
28 | COc1ccc(C(=O)Nc2ccc(-c3cn4ccsc4n3)cc2)cc1S(=O)(=O)N1CCOCC1 | inconclusive [decreasing]
29 | N#CC1=C(N)C(C#N)(C#N)[C@H](c2ccoc2)[C@H]2CN(Cc3ccccc3)CC=C12 | inconclusive [decreasing]
30 | O=C(Nc1cccc(C(F)(F)F)c1)C1CCN(S(=O)(=O)c2cnc[nH]2)CC1 | inconclusive [decreasing]
31 | COC(=O)C1=C(C(=O)c2ccccc2)C(c2ccc(OC)c(OC)c2)Nc2nnnn21 (stereo not drawn) | inconclusive [decreasing]
32 | CCCC(=O)N(C)c1nnc(-c2ccc(OC)cc2)s1 | inactive: > 76.9 µM
33 | CCOC(=O)c1sc2nc(SCC#N)n(CCCN3CCCC3=O)c(=O)c2c1C | inactive: > 76.9 µM
34 | c1ccc2nc(-c3nc4ccccc4o3)ccc2c1 | inconclusive [increasing]
35 | CNc1nnc(-c2cccc(N(C)C)c2)s1 | inconclusive [decreasing]
36 | CC1=CC(=C2C(=O)c3ccccc3C2=O)C=C(C)N1Cc1ccco1 | inactive: > 76.9 µM
37 | COc1ccc(N(CC(=O)N2c3ccccc3CC2C)S(=O)(=O)c2c(C)noc2C)cc1 (stereo not drawn) | inconclusive [decreasing]
38 | O=C(Nc1cc(N2CCOCC2)ncn1)c1ccccc1 | inactive: > 76.9 µM
39 | CCCCCCn1cnc2c(c1=O)c1nc3ccccc3nc1n2/N=C/c1ccco1 | inactive: > 76.9 µM
40 | CCc1ccc(OCC(=O)NCc2ccco2)c(Br)c1 | inconclusive [decreasing]
41 | O=C(Nc1nccs1)c1ccc(NC(=O)c2ccco2)cc1 | inconclusive [decreasing]
42 | O=C(NCCC1=CCCCC1)c1cc2c(s1)CS(=O)(=O)C2 | inconclusive [decreasing]
43 | O=C(Nc1ccc(Cl)cc1C(=O)NCCN1CCOCC1)c1ccco1 | inconclusive [decreasing]
44 | Cc1ccc(OCc2nnc(SCC(=O)CC(=O)Nc3ccccc3)o2)cc1 | inconclusive [decreasing]
45 | Cc1cccc(-c2noc(-c3ccccc3C(=O)NCC3CCCO3)n2)c1 (stereo not drawn) | inactive: > 76.9 µM
46 | Cc1cc(C(=O)Nc2cccnc2)cs1 | inconclusive [decreasing]
47 | N=c1c(C(=O)NCc2ccc(F)cc2)cc2c(=O)n3ccccc3nc2n1Cc1ccco1 | inactive: > 76.9 µM
48 | OCCN1CCN(C(=S)c2ccc(Cl)c(Cl)c2)CC1 | active: 10.5 µM
